Assay results from a collection of fitness landscapes (doi:10.1016/j.celrep.2020.107928).
The full ranking holds about 81,000 sequences; the median of “one-hybrid fitness for binding parS DNA” is about -0.17, and the highest 2% start at about 0.51. This is one part of the list.

B1: Caulobacter ParB omega fusion; a variant is named by its letters at X, in order, B8GW30 (parent)
chain: MESVVVGEPGMSEGRRGLGRGLSALLGEVDAAPAQAPGEQLGGSREAPIEILQRNPDQPRRTFREEDLEDLSNSIREKGVLQPILVRPSPDTAGEYQIVAGERAWRAAQRAGLKTVPIMVRELDDLAVLEIGIIENVQRADLNVLEEALSYKVLMEKFERTQENIAQTIGKSXSHVANXMRLLXLPDEVQSYLVSGELTAXHARAIAAAADPVALAKQIIEGGLSVRETEALARKAPNLSAGKSKGGRPPRVKDTDTQALESDLSSVLGLDVSIDHRGSTGTLTITYATLEQLDDLCNRLTRGI

Variants of: B1
Experiment: one-hybrid fitness for binding parS DNA (scaled: cognate 1, non-cognate 0); higher = stronger binding
Conditions: with parS DNA site
Summary of the method: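 Pre- and post-selection plasmids were Illumina-sequenced, three replicate libraries were pooled, and any variant with under 10 reads was removed. The libraries were Caulobacter ParB with four specificity codons randomised, selected in E. coli USO through a HIS3 reporter whose site is 19 bp from the promoter. Cells grew 48 hours at 37°C on M9 without histidine, with 0.1 mM IPTG and 5 mM 3-AT. Fitness is the log change in variant-to-wild-type read ratio, rescaled against cognate and non-cognate.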

one-hybrid fitness for binding parS DNA, 0.982:
RVAC

one-hybrid fitness for binding parS DNA, 0.235:
RMGP

one-hybrid fitness for binding parS DNA, 0.333:
RILM

one-hybrid fitness for binding parS DNA, ≤ 0.2:
RWMK
LPKH
VHGT
CPIC
QKNM
IGLI
LEEG
TGNW
VPVV
HYCT
RWPL
MMNF
EKPR
CMRW
SANF
HRCK
IEGT
WGVG
LITE
VLYW
QRRI
RDIR
AADE
ERLC
QEWA
TNNR
SAKS
MLHK
LTKF
FAGV
PIYV
PQPK
VSRT
KTWL
YSDV
CVGR
TIQI
QMIE
RAIF
RQSF
VASI
QSWY
WAPR
PWAW
LQGM
SLST
HEGR
CIQS
PWYI
CLGA
RMAL
DRMR
QDGL
INIY
HVGS
VDMT
MYYS
YMHA
THIR
QKVG
YLTS
KVWM
TTRA
FPVS
WRHT
QICW
LYER
QRDW
HFKC
CEKE
NPIH
TVRD
TGTI
MVNC
IYRS
PFVT
WGKM
TESM
YKSY
SRTL
NKNV
NLNL
HREW
DNSE
AGTK
HGSI
CQNC
KRWL
QLCV
GINK
PVQR
LYVM
QKIY
STPH
QTWP
DQLY
EARL
TWGG
AMAP
PCQY
QITV
YLHR
QTAF
WKMR
NSTS
IQNF
KVGA
QNQP
LHSG
LHFG
DYYR
YALV
ACRK
CQVT
YVYV
TISY
VAYM
SQAC
LRIR
PRCT
GAER
CTSN
DDFT
AVST
EGTK
KNVT
TWQC
TRFK
MGLR
NQKN
HNGL
HRLV
QWQS
SAIC
RTMH
QVIY
AGHT
STFG
PYAY
GAGS
LQMS
WYGG
VRWG
MTTW
PHKQ
AHWR
KQWS
MNHY
KHCS
QYST
QTWH
MYIT
GYDF
WDYS
GLLV
IRSG
TNRP
HQGR
GSTR
SHKT
PIPK
QRDR
GNCL
TGVW
YHNH
SGKV
SHSG
PWPN
VPQC
HWFC
HHDG
GSNY
VISM
RHNP
KAGR
MIHT
IWRS
VHIS
GPLA
LHFI
PCFM
CIMK
TYYL
LSAN
QRCR
SFMW
VLLR

one-hybrid fitness for binding parS DNA, 0.976:
RQCS

one-hybrid fitness for binding parS DNA, 0.978:
RYYS

one-hybrid fitness for binding parS DNA, 0.946:
RHTC

one-hybrid fitness for binding parS DNA, 0.735:
RMKA

one-hybrid fitness for binding parS DNA, 1:
RASS
